This is one part of the list.
Legend:
Assay in all cases: glycan array binding signal (z-score within array); higher = stronger binding
Conditions in all cases: glycan notation: IUPAC condensed, linker removed
[1] = biological target: Fuc(a1-3)[Gal3S(b1-4)]GlcNAc6S
Procedure, shortened: (§1)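 Negative Z-scores can be read as non-binding. The Z-score is calculated within each array and then averaged across arrays of one protein sequence at different concentrations or buffers and across linkers. Arrays, 3228 in all, were curated from the Consortium for Functional Glycomics database and kept only where the protein sequence was available.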

[2] = biological target: Fuc(a1-3)[GalNAc(b1-4)]GlcNAc
Procedure, shortened: as §1

[3] = biological target: Fuc(a1-3)[GalNAc(b1-4)]GlcNAc6S
Procedure, shortened: as §1

Fuc(a1-4)GlcNAc = biological target: Fuc(a1-4)GlcNAc
Procedure, shortened: as §1

Fuc(b1-3)GlcNAc = biological target: Fuc(b1-3)GlcNAc
Procedure, shortened: as §1

Gal(a1-2)Gal = biological target: Gal(a1-2)Gal
Procedure, shortened: as §1

Gal(a1-3)Gal = biological target: Gal(a1-3)Gal
Procedure, shortened: as §1

Gal(a1-3)Gal(b1-3)GlcNAc = biological target: Gal(a1-3)Gal(b1-3)GlcNAc
Procedure, shortened: as §1

[4] = biological target: Gal(a1-3)Gal(b1-3)GlcNAc(b1-2)Man
Procedure, shortened: as §1

[5] = biological target: Gal(a1-3)Gal(b1-3)GlcNAc(b1-2)Man(a1-3)[Gal(a1-3)Gal(b1-3)GlcNAc(b1-2)Man(a1-6)]Man(b1-4)GlcNAc(b1-4)GlcNAc
Procedure, shortened: as §1

[6] = biological target: Gal(a1-3)Gal(b1-3)GlcNAc(b1-3)GalNAc
Procedure, shortened: as §1

[7] = biological target: Gal(a1-3)Gal(b1-3)GlcNAc(b1-6)GalNAc
Procedure, shortened: as §1

[8] = biological target: Gal(a1-3)Gal(b1-3)[Fuc(a1-4)]GlcNAc(b1-2)Man(a1-3)[Gal(a1-3)Gal(b1-3)[Fuc(a1-4)]GlcNAc(b1-2)Man(a1-6)]Man(b1-4)GlcNAc(b1-4)GlcNAc
Procedure, shortened: as §1

Gal(a1-3)Gal(b1-4)Glc = biological target: Gal(a1-3)Gal(b1-4)Glc
Procedure, shortened: as §1

Gal(a1-3)Gal(b1-4)GlcNAc = biological target: Gal(a1-3)Gal(b1-4)GlcNAc
Procedure, shortened: as §1

[9] = biological target: Gal(a1-3)Gal(b1-4)GlcNAc(b1-2)Man
Procedure, shortened: as §1

[10] = biological target: Gal(a1-3)Gal(b1-4)GlcNAc(b1-2)Man(a1-3)[Gal(a1-3)Gal(b1-4)GlcNAc(b1-2)Man(a1-6)]Man(b1-4)GlcNAc(b1-4)GlcNAc
Procedure, shortened: as §1

[11] = biological target: Gal(a1-3)Gal(b1-4)GlcNAc(b1-3)GalNAc
Procedure, shortened: as §1

[12] = biological target: Gal(a1-3)Gal(b1-4)GlcNAc(b1-6)GalNAc
Procedure, shortened: as §1

[13] = biological target: Gal(a1-3)Gal(b1-4)[Fuc(a1-3)]GlcNAc
Procedure, shortened: as §1

[14] = biological target: Gal(a1-3)Gal(b1-4)[Fuc(a1-3)]GlcNAc(b1-2)Man(a1-3)[Gal(a1-3)Gal(b1-4)[Fuc(a1-3)]GlcNAc(b1-2)Man(a1-6)]Man(b1-4)GlcNAc(b1-4)GlcNAc
Procedure, shortened: as §1

Gal(a1-3)GalNAc = biological target: Gal(a1-3)GalNAc
Procedure, shortened: as §1

[15] = biological target: Gal(a1-3)[Gal(a1-4)]Gal(b1-4)GlcNAc
Procedure, shortened: as §1

[16] = biological target: Gal(a1-4)Gal(b1-3)GlcNAc(b1-2)Man(a1-3)[Gal(a1-4)Gal(b1-3)GlcNAc(b1-2)Man(a1-6)]Man(b1-4)GlcNAc(b1-4)GlcNAc
Procedure, shortened: as §1

Gal(a1-4)Gal(b1-4)Glc = biological target: Gal(a1-4)Gal(b1-4)Glc
Procedure, shortened: as §1

Gal(a1-4)Gal(b1-4)GlcNAc = biological target: Gal(a1-4)Gal(b1-4)GlcNAc
Procedure, shortened: as §1

[17] = biological target: Gal(a1-4)Gal(b1-4)GlcNAc(b1-2)Man(a1-3)[Gal(a1-4)Gal(b1-4)GlcNAc(b1-2)Man(a1-6)]Man(b1-4)GlcNAc(b1-4)GlcNAc
Procedure, shortened: as §1

[18] = biological target: Gal(a1-4)Gal(b1-4)GlcNAc(b1-3)Gal(b1-4)Glc
Procedure, shortened: as §1

Gal(a1-4)GlcNAc = biological target: Gal(a1-4)GlcNAc
Procedure, shortened: as §1

Gal(a1-6)Glc = biological target: Gal(a1-6)Glc
Procedure, shortened: as §1

Gal(b1-2)Gal = biological target: Gal(b1-2)Gal
Procedure, shortened: as §1

Gal(b1-3)Gal = biological target: Gal(b1-3)Gal
Procedure, shortened: as §1

Gal(b1-3)Gal(b1-4)GlcNAc = biological target: Gal(b1-3)Gal(b1-4)GlcNAc
Procedure, shortened: as §1

Gal(b1-3)GalNAc = biological target: Gal(b1-3)GalNAc
Procedure, shortened: as §1

[19] = biological target: Gal(b1-3)GalNAc(a1-3)[Fuc(a1-2)]Gal(b1-4)Glc
Procedure, shortened: as §1

[20] = biological target: Gal(b1-3)GalNAc(a1-3)[Fuc(a1-2)]Gal(b1-4)GlcNAc
Procedure, shortened: as §1

Gal(b1-3)GalNAc(b1-3)Gal = biological target: Gal(b1-3)GalNAc(b1-3)Gal
Procedure, shortened: as §1

B1: PX9961C-bth-497-22-497 (Bacteroides thetaiotaomicron) (protein)
chain: DWLDLNTTSSVETGQAIVTLDDAQIALNGIYRLASGHSYYGDNYWYYGDCRAADVQARITKGDGKRVSPYYEYNVLASDNLNIVLPWNTVYKVIRQTNNLIQKIESGSIQSSDTKELNRIKSEALVMRGLSLFNLTRLFGMPYTNDKGASLGVPIETSPSDPTHKPSRSTVAQCYEQVVSDMSNALSGLRQETSNGYINYWAAQALLSRVYLNMGEYQKAYDAATDVIKNNGGRYQLYSYEEYPNVWGQDFQSESLFELYITLSEPSGGTGGEGAPMVYANEATVDWNNLILSEDFLNLLNEDPKDVRHCLTKESVIENNTGLPAAAMHEKVYLAKFPGKTGDDPKTNNICIIRLSEVYLNAAEAGLKKGTDIEEAQGYLNDIISRRTTDTSQQVSTETFTLDRILKERRKELVGEGEVFYDYLRNGLAIERKGSWHLETLKASNAQKIEATDLRIALPIPQSEIDANPNIQQNPR
glycan array binding signal (z-score) [1]: 0.086 | glycan array binding signal (z-score) [2]: 0.598 | glycan array binding signal (z-score) [3]: 0.685 | glycan array binding signal (z-score) (Fuc(a1-4)GlcNAc): -0.268 | glycan array binding signal (z-score) (Fuc(b1-3)GlcNAc): -0.379 | glycan array binding signal (z-score) (Gal(a1-2)Gal): -0.153 | glycan array binding signal (z-score) (Gal(a1-3)Gal): 0.007 | glycan array binding signal (z-score) (Gal(a1-3)Gal(b1-3)GlcNAc): -0.49 | glycan array binding signal (z-score) [4]: -0.203 | glycan array binding signal (z-score) [5]: -0.229 | glycan array binding signal (z-score) [6]: -0.489 | glycan array binding signal (z-score) [7]: 0.804 | glycan array binding signal (z-score) [8]: -0.078 | glycan array binding signal (z-score) (Gal(a1-3)Gal(b1-4)Glc): 0.346 | glycan array binding signal (z-score) (Gal(a1-3)Gal(b1-4)GlcNAc): -0.186 | glycan array binding signal (z-score) [9]: 0.338 | glycan array binding signal (z-score) [10]: 0.542 | glycan array binding signal (z-score) [11]: -0.646 | glycan array binding signal (z-score) [12]: -0.139 | glycan array binding signal (z-score) [13]: -0.325 | glycan array binding signal (z-score) [14]: 0.117 | glycan array binding signal (z-score) (Gal(a1-3)GalNAc): 0.054 | glycan array binding signal (z-score) [15]: 2.48 | glycan array binding signal (z-score) [16]: -0.118 | glycan array binding signal (z-score) (Gal(a1-4)Gal(b1-4)Glc): -0.164 | glycan array binding signal (z-score) (Gal(a1-4)Gal(b1-4)GlcNAc): -0.304 | glycan array binding signal (z-score) [17]: -0.151 | glycan array binding signal (z-score) [18]: -0.274 | glycan array binding signal (z-score) (Gal(a1-4)GlcNAc): -0.17 | glycan array binding signal (z-score) (Gal(a1-6)Glc): -0.583 | glycan array binding signal (z-score) (Gal(b1-2)Gal): 0.181 | glycan array binding signal (z-score) (Gal(b1-3)Gal): 0.542 | glycan array binding signal (z-score) (Gal(b1-3)Gal(b1-4)GlcNAc): -0.21 | glycan array binding signal (z-score) (Gal(b1-3)GalNAc): -0.469 | glycan array binding signal (z-score) [19]: -0.046 | glycan array binding signal (z-score) [20]: -0.307 | glycan array binding signal (z-score) (Gal(b1-3)GalNAc(b1-3)Gal): 0.6
